Hit rate of the full screen: of about 410,000 compounds, about 5,000 (1.2%) were called active. Inconclusive results (about 13%) are left out. Calls come from the whole dose curve; as a rule, active = well fitted inhibition curve with a large enough effect; inconclusive = small, poorly fitted or top-dose-only effect; inactive = no such curve, though single readings can be large or run the other way. Some compounds were tested as several samples or in several runs, with calls that do not always agree. A number of entries come with more than one value. The list is limited to them. The source may hold further records. Values that stand side by side repeat one measurement across runs, samples, wells, individuals or studies. What stands in brackets tells the records apart. Letters hold for one entry only.

The source of these data is PubChem BioAssay AID588855 (National Center for Advancing Translational Sciences (NCATS), 2011).
Potency is the fitted concentration of half-maximal effect.

This experiment in a line: qHTS for Inhibitors of TGF-b. Note: nearly all actives have a fitted effect of over 65% in size. The note with it: HepG2 CAGA-GFP TGF-b/SMAD3 reporter, GFP fluorescence, 18 h, TGF-beta stimulated, 500 pg/mL final; series mostly up to 46.1 µM. The source says:
TGF-b is a main component in the TGF-b signaling pathway which plays diverse roles in cellular and development pathways. TGF-b is the mediated by the transcription factors Smads. Although the Smad-dependent pathway is the primary canonical TGF-b signaling node, TGF-b1 can also activate alternative signaling pathways, including those involving MAPK (ERK, JNK and p38). This interaction may mediate or enhance Smad-dependent responses, or can exert Smad-independent effects. The complexity of this signaling cascade allows the TGF-b superfamily to perform unique, overlapping or redundant functions. We believe that targeting the TGF-beta pathway at the Smad-transcription factor level may eliminate the consequences of disrupting the entire pathway and offer specificity without affecting other signaling pathways. Smad3 is the primary transducer of TGF-b's signals and Smad3 regulates many functions attributed to TGF-b signaling. We hypothesize that Smad3 inhibitors will selectively eliminate Smad3-specific TGF-beta signals without undesired off-target effects. We aim to identify Smad3-small molecule antagonists using a quantitative high throughput screening (qHTS) approach.
A high-throughput assay was developed to screen the NIH Molecular Libraries Small Molecule Repository (MLSMR). This is a cell based assay, where TGF-b is tagged with GFP. A counterscreen is run that looks at cytotoxicity (please see summary AID).
MH087449NIH Chemical Genomics Center [NCGC]
NIH Molecular Libraries Probe Centers Network [MLPCN]
Assay Submitter (PI): Sushil Rane, National Institute of […]
Suspensions of trypsinized HEPG2 CAGA-GFP cells were dispensed into white, tissue culture-treated, solid 1536-well plates at 5uL/well (1000 cells/well final concentration) in DMEM medium supplemented with 1% FBS. Plates were incubated at 37 degrees C for 2 hours, after which 23 nL of compounds or DMSO were delivered to each well using a pin tool. One uL of recombinant TGF-beta in DMEM (1% FBS) was then dispensed (500 pg/mL final concentration), and plates were incubated at 37 degrees C for 18 hours. The plates were measured on an Acumen eX3 Explorer plate reader for GFP fluorescence (ex488/em500-530). GFP values were calculated by determining the mean GFP fluorescence of individual cells, and compiling these values for each well to determine a total well GFP signal. The %Activity was determined from the corrected fluorescence values. A titration of the known TGF-B inhibitor SB431542 was included to monitor plate performance, while unstimulated HEPG2 (-TGF-B) control wells were used to normalize %Activity of identified inhibitors; unstimulated wells corresponded to 100%Activity (full inhibition), while stimulated cell controls (+DMSO) were used to normalize 0%Activity (no inhibition).
Concentration-response curves were fitted to the signals arising from the resulting fluorescence. The concentration-effect curves were then classified based on curve quality (r2), response magnitude and degree of measured activity, and compounds were subsequently categorized based on their curve class.
On the technique in general: Quantitative high-throughput screening tests each substance at several concentrations.
For the compound `CCc1ccc(CNC(=O)C2CCN(c3nnc(C)c4c(C)n(-c5ccc(C)cc5)nc34)CC2)cc1`, the Potency result was “active: 8.91 µM [sample A] and inactive [sample B]”.

In the case of `CCCCCCNS(=O)(=O)c1ccccc1Br`, the Potency result is “active: 15.8 µM [sample A] and inactive [sample B]”.

In the case of `O=C(C[C@H]1C(=O)N(c2ccc(F)c(F)c2)C[C@@H]1Cc1ccccc1)Nc1ccccc1`, the Potency result was “inactive [sample A] and active: 15.8 µM [sample B]”.

For the compound `Cc1ccccc1CN1C(=O)c2ccccc2Sc2ccc(C(=O)NCCCN3CCOCC3)cc21`, the Potency result is “inactive [sample A] and active: 11.2 µM [sample B]”.

As for `CCOC(=O)/C=C/c1ccc(C(F)(F)F)cc1S(=O)(=O)NC(C)(C)C`, the Potency entry was “inactive [sample A] and active: 12.6 µM [sample B]”.
